The source of these data is paper PMC4022593.

Chains of the proteins cited; added tags and fusions are not shown. Lines headed by an entry give the natural chain unless they say otherwise; changes in a name come on top. A line that says so, or that is headed by a name, gives the form on record, which may keep a tag or linker. Residues count along the entry.
UniProt Q9FPR3: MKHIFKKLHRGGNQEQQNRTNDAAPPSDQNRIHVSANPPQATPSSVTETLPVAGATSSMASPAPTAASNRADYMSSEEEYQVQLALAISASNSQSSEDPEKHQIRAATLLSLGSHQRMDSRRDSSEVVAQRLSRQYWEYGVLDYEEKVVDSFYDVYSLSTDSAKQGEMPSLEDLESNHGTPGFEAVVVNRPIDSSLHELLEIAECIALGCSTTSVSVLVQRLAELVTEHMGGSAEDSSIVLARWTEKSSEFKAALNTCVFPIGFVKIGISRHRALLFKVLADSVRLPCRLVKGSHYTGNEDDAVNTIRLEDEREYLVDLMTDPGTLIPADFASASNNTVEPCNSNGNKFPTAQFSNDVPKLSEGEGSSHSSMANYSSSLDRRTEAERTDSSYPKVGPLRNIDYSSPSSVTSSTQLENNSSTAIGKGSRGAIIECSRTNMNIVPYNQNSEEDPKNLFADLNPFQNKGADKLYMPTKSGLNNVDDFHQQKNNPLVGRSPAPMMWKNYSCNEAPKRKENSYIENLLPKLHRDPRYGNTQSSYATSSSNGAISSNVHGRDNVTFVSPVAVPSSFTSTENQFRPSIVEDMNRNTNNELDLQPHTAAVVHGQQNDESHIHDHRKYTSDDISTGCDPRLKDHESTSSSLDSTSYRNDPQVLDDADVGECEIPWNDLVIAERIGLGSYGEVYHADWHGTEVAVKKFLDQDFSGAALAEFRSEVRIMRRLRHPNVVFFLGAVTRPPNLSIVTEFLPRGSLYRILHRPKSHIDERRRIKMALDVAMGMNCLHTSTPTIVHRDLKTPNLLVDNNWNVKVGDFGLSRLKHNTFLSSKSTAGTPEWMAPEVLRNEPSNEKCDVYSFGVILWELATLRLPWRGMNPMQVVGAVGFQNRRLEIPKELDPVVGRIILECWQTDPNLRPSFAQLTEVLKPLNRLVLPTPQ
EDR1 N-terminal domain fused to the Gal4 DNA binding domain: residues 1-657 of Q9FPR3
UniProt Q39026: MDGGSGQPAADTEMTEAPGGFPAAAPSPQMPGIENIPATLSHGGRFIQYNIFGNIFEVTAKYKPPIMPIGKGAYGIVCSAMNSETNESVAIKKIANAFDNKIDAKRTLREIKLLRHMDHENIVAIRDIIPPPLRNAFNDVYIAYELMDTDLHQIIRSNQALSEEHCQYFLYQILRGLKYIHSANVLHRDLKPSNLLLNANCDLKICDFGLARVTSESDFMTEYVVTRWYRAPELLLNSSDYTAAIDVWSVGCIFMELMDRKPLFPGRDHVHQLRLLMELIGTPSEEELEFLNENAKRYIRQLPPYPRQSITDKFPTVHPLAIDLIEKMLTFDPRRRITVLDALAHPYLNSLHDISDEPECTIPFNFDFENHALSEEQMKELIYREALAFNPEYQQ

Test [1] has as its target T1, HA tagged MKK5 expressed in N. benthamiana (Arabidopsis thaliana) (UniProt Q8RXG3).
T1 sequence: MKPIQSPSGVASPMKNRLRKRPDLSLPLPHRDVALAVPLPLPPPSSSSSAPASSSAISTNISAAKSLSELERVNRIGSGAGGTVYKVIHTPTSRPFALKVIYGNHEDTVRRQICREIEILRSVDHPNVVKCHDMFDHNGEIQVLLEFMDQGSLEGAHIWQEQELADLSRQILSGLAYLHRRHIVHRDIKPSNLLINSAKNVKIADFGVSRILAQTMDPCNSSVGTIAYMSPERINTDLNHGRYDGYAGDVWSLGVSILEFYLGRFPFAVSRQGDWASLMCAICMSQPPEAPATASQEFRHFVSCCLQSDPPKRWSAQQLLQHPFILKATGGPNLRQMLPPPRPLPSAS
Briefly: co-IP; transient co-expression in N. benthamiana, proteins extracted after 48 h; immunoprecipitation by anti-HA antibody and Protein G, immunoblot with anti-Myc and anti-HA. (In general: Immunoblotting shows a protein as a band on a membrane.)

In test [2] the target is T2, HA tagged MKK4 expressed in N. benthamiana (Arabidopsis thaliana) (UniProt O80397).
T2 sequence: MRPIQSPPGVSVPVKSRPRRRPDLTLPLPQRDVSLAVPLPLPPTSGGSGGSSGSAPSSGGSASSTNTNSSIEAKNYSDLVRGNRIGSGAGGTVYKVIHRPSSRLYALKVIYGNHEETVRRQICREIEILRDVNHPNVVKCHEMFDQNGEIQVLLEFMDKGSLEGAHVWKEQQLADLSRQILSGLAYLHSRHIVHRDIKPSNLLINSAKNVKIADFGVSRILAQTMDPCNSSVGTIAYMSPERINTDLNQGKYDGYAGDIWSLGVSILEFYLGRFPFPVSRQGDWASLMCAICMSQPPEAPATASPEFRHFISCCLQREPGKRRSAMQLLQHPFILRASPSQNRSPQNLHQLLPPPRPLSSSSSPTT
The test is described as above.

In test [3] the target is T3, HA-MKK5 in transgenic Arabidopsis (Arabidopsis thaliana) (UniProt Q8RXG3).
T3 sequence: T1 sequence
Briefly: co-IP; extracts of EDR1-Flag/HA-MKK5 double transgenic Arabidopsis plants (EDR1-Flag plants as control); immunoprecipitation by HA antibody and Protein G, immunoblot with anti-Flag or anti-HA.

The target of test [4] is EDR1 full length fused to the Gal4 DNA binding domain (Arabidopsis thaliana) (UniProt Q9FPR3). The test is described as follows: two-hybrid; EDR1 constructs on the Gal4 DNA binding domain (pGBKT-7), kinases on the Gal4 transactivation domain (pGADT-7), cotransformed into yeast AH109; growth on SD lacking Ade, His, Leu and Trp, 2 days.
In test [5] the target is EDR1 N-terminal domain fused to the Gal4 DNA binding domain (Arabidopsis thaliana) (UniProt Q9FPR3). The description is as above.
In test [6] the target is YFP^YN-fused EDR1 (Arabidopsis thaliana) (UniProt Q9FPR3). The test is described as follows: split reporter; BiFC: YFP^YN and YFP^YC fusions co-expressed in N. benthamiana by Agrobacterium; YFP fluorescence by confocal microscopy after 48 hours.

No constants are given. Whether binding was seen depends on the method and setting. For some of these results: Binding seen in cells or lysates may run through a third protein. Some results given as binding are weak or reduced against the parent protein; the word gives no strength. Tags and fused reporters may be left off the sequences shown.

Consider “EDR1 N-terminal domain expressed in N. benthamiana (from UniProt Q9FPR3 1-657) (domain or fragment)”, for which the binding entry in test [1] and in test [2] was “binds” in each case.

“EDR1-Flag in transgenic Arabidopsis (from UniProt Q9FPR3 1-933)”: the binding entry in test [3] is on record as “binds”.

On to “MPK6 fused to the Gal4 transactivation domain (from UniProt Q39026 1-395)”, for which the binding entry in test [4] was “no binding”.

B1: MKK2 fused to the Gal4 transactivation domain (protein, UniProt Q9S7U9 1-363)
chain: MKKGGFSNNLKLAIPVAGEQSITKFLTQSGTFKDGDLRVNKDGVRIISQLEPEVLSPIKPADDQLSLSDLDMVKVIGKGSSGVVQLVQHKWTGQFFALKVIQLNIDEAIRKAIAQELKINQSSQCPNLVTSYQSFYDNGAISLILEYMDGGSLADFLKSVKAIPDSYLSAIFRQVLQGLIYLHHDRHIIHRDLKPSNLLINHRGEVKITDFGVSTVMTNTAGLANTFVGTYNYMSPERIVGNKYGNKSDIWSLGLVVLECATGKFPYAPPNQEETWTSVFELMEAIVDQPPPALPSGNFSPELSSFISTCLQKDPNSRSSAKELMEHPFLNKYDYSGINLASYFTDAGSPLATLGNLSGTFSV
On to B1, for which, in test [4], the binding result is on record as “no binding”.

B2: MPK3 fused to the Gal4 transactivation domain (protein, UniProt Q39023 1-370)
chain: MNTGGGQYTDFPAVETHGGQFISYDIFGSLFEITSKYRPPIIPIGRGAYGIVCSVLDTETNELVAMKKIANAFDNHMDAKRTLREIKLLRHLDHENIIAIRDVVPPPLRRQFSDVYISTELMDTDLHQIIRSNQSLSEEHCQYFLYQLLRGLKYIHSANIIHRDLKPSNLLLNANCDLKICDFGLARPTSENDFMTEYVVTRWYRAPELLLNSSDYTAAIDVWSVGCIFMELMNRKPLFPGKDHVHQMRLLTELLGTPTESDLGFTHNEDAKRYIRQLPNFPRQPLAKLFSHVNPMAIDLVDRMLTFDPNRRITVEQALNHQYLAKLHDPNDEPICQKPFSFEFEQQPLDEEQIKEMIYQEAIALNPTYG
Consider B2, for which the binding entry in test [4] was “no binding”.

B3: MKK1 fused to the Gal4 transactivation domain (protein, UniProt Q94A06 1-354)
chain: MNRGSLCPNPICLPPLEQSISKFLTQSGTFKDGDLRVNKDGIQTVSLSEPGAPPPIEPLDNQLSLADLEVIKVIGKGSSGNVQLVKHKLTQQFFALKVIQLNTEESTCRAISQELRINLSSQCPYLVSCYQSFYHNGLVSIILEFMDGGSLADLLKKVGKVPENMLSAICKRVLRGLCYIHHERRIIHRDLKPSNLLINHRGEVKITDFGVSKILTSTSSLANSFVGTYPYMSPERISGSLYSNKSDIWSLGLVLLECATGKFPYTPPEHKKGWSSVYELVDAIVENPPPCAPSNLFSPEFCSFISQCVQKDPRDRKSAKELLEHKFVKMFEDSDTNLSAYFTDAGSLIPPLAN
As for B3, the binding result in test [4] is “no binding”.

B4: MKK5 fused to the Gal4 transactivation domain (protein, UniProt Q8RXG3 1-348)
chain: T1 sequence
Take B4: the binding result in test [4] and in test [5] was “binds” in each case.

B5: YFP^YC-fused MKK5 (protein, UniProt Q8RXG3 1-348)
chain: T1 sequence
Turning to B5, the binding result in test [6] is listed as “binds”.

B6: MKK4 fused to the Gal4 transactivation domain (protein, UniProt O80397 1-366)
chain: T2 sequence
On to B6, for which the binding result in test [4] and in test [5] was “binds” each time.

B7: YFP^YC-fused MKK4 (protein, UniProt O80397 1-366)
chain: T2 sequence
Take B7: in test [6], the binding result was “binds”.
